Out of some 150,000 compounds screened, about 540 (0.36%) showed an effect of 50% or more. The list shows a part of the results.

The assay concerns Plasmodium falciparum. The assay can be described thus: Primary screen in NF54 nanoGlo assay, in single point, at 2uM, 72h; a lower Z score goes with more inhibition. Type of assay: functional, Erythrocyte. The note with it: timepoint 72 hour.
The % Inhibition is the relative decrease from the control value, in per cent. For `COc1cc(C(F)(F)F)ccc1C(=O)Nc1cccc(/C=C/c2ccncc2)c1`, the “% Inhibition” value stood at 19% and the Z score is given as -2.39.
For `CC(Cn1cccn1)NC(=O)N1CCCC1c1cccs1` (stereo unspecified), in that order: -7% and 1.39.
For `Cc1ccc(-c2noc(C3CC3)n2)cc1S(=O)(=O)NCC(=O)N1CCCC1`, in that order: -5% and 0.54.
For `COc1ccc(NC(=O)N[C@@H]2C=C[C@@H](c3c(C)nn(-c4ccc(C(C)C)cc4)c3C)C2)cc1`, in that order: -3% and 0.41.
As to `O=C(c1n[nH]c(=O)c2ccccc12)N1CCC[C@H](c2nc3ccccc3s2)C1`, the “% Inhibition” value is 22% and the Z score is -2.6.
For `O=C(CN1CCCC1Cn1cncn1)N1CCOC2CCCCC21` (stereo unspecified), in that order: -5% and 0.47.
`CCCC(=O)N1CCC(C(=O)N2CCCC2)CC1`: the “% Inhibition” value is -16% and the Z score was 2.23.
With `O=S(=O)(Cc1ccn[nH]1)c1ccc(C2CCCCC2)cc1`, the “% Inhibition” value is given as -4% and the Z score was found to be 0.53.
In the case of `CC1CCN(C[C@H](O)CN2CCCc3ccccc3C2)CC1`, the “% Inhibition” value is listed as -1% and the Z score is 0.19.
For `c1ccc(-c2nn(-c3ccccc3)c(-c3ccccc3)c3cccc2-3)cc1`, in that order: -35% and 4.11.
For `Cn1ccnc1-c1cn([C@H]2CCCCNC2=O)nn1`, in that order: 0% and -0.06.
Take `Cc1ccc(CNC(=O)[C@]2(C)CN(S(C)(=O)=O)CC(=O)N2c2cc(Cl)ccc2C)cc1`: the “% Inhibition” value was -3% and the Z score worked out at 0.57.
As to `Cc1oc2c(c1C(=O)N1C[C@H](C(=O)O)[C@@H](c3ccc(F)cc3)C1)C(=O)CCC2`, the “% Inhibition” value was 1% and the Z score was -0.22.
Consider `NC(=O)[C@@H]1C[C@@H](O)CN1C(=O)CC1CC2CCC1C2` (stereo partly specified), for which the “% Inhibition” value is reported as -16% and the Z score is recorded as 1.82.
For `CC(NC(=O)OC(C)(C)C)C1CN(Cc2ccco2)CCO1` (stereo unspecified), in that order: -11% and 1.39.
The matching figures for `Cc1ccc(C(=O)N2CCOC3CCCCC32)c(=O)[nH]1` (stereo unspecified): 3% and -0.49.
For `CCCCNC(=O)[C@@H]1CCCC[C@@H]1C(=O)NCc1cc(C)on1`, the “% Inhibition” value is given as -8% and the Z score amounted to 1.31.
The matching figures for `CN(Cc1csc(-c2cccs2)n1)C(=O)[C@H]1CCOC1`: -15% and 1.91.
With `NC(=O)c1ccc(NCC(=O)N2CCC(Cc3ccccc3)CC2)cc1F`, the “% Inhibition” value came out at 8% and the Z score was -1.37.
In the case of `O=C1CC2(CCN(C(=O)CCS(=O)(=O)c3ccccc3)CC2)CN1`, the “% Inhibition” value was -6% and the Z score came out at 0.61.
Take `Cc1cc(NC(=O)[C@]23CCC[C@H]2OCC3)cnc1C`: the “% Inhibition” value was -13% and the Z score was found to be 1.32.
Consider `CN1C[C@@H](COC(=O)CCc2ccccc2)CC1=O`, for which the “% Inhibition” value is given as -5% and the Z score stood at 0.54.
Turning to `CCCN1C(=O)COc2cc(-c3noc(C(=O)NCc4cc(OC)ccc4OC)n3)ccc21`, the “% Inhibition” value is reported as -9% and the Z score stood at 1.59.
Take `Cc1cnc(C2CN(C(=O)[C@@H]3CCCO3)C2)n1Cc1cccnc1`: the “% Inhibition” value is reported as -2% and the Z score is listed as 0.31.
For the compound `C[C@H](O)CC(C)(C)CNS(=O)(=O)c1c(F)cc(C#N)cc1F`, the “% Inhibition” value was -18% and the Z score came out at 1.82.
For `C[C@@H]1Oc2ccc(NC(=O)c3ccc(Cl)c(Cl)c3)cc2CN(Cc2ccccc2F)C1=O`, in that order: -4% and 0.6.
On to `CCn1ncc(C#N)c1NS(=O)(=O)Cc1ccc(C)c(F)c1`, for which the “% Inhibition” value turned out to be 1% and the Z score is on record as -0.19.
For the compound `Cn1ncc(NC(=O)c2ccoc2C2CC2)c1Cl`, the “% Inhibition” value amounted to 15% and the Z score was -1.94.
The matching figures for `Cc1cc(C(=O)N[C@H](c2ccc(Cl)cc2)c2ccn(C)n2)c(C)o1`: -10% and 0.89.
For `Cc1nnc(-c2cc(C(C)C)n(-c3ccc(C(=O)N[C@H]4CCc5ccccc54)cc3)n2)o1`, in that order: -2% and 0.4.
The matching figures for `CC(NC(=O)c1cnccn1)C1CC2CCC1C2` (stereo unspecified): -5% and 0.89.
Take `N#Cc1ccc(NCCc2nnc3ccccn23)nc1`: the “% Inhibition” value is -11% and the Z score came out at 1.42.
Take `COc1cccc(NC(=O)c2cccn3c(-c4ccccc4F)nnc23)c1`: the “% Inhibition” value is on record as 6% and the Z score was -0.94.
Regarding `Cc1noc(-c2ccc(S(=O)(=O)NCCc3ncc[nH]3)o2)c1C`, the “% Inhibition” value is 7% and the Z score is -0.95.
For the compound `C[C@@H](c1cc2ccccc2[nH]1)N(C)C(=O)CCN1CCCCO1`, the “% Inhibition” value is -4% and the Z score is 0.49.
For the compound `COCCN(CCOC)CC(=O)N1CCCC[C@@H]1C`, the “% Inhibition” value was found to be 0% and the Z score was 0.06.
`Cc1cc(C)c2c(C(=O)N3CCCC3)cc(-c3cnn(C(C)C)c3)nc2c1`: the “% Inhibition” value is 8% and the Z score is recorded as -1.
In the case of `COc1ccc(-c2noc(-c3cc4n(n3)CCCC4=O)n2)cc1`, the “% Inhibition” value is -6% and the Z score is 0.79.
The matching figures for `O=C(Nc1cccnc1)N1CCC[C@H]1c1ccc2c(c1)OCCCO2`: -11% and 1.2.
For `CCn1c(C)ccc(C(=O)NCCc2ccc(S(N)(=O)=O)cc2)c1=O`, in that order: -8% and 1.16.
The matching figures for `O=C(NCc1ccco1)c1cscn1`: -13% and 1.73.
As for `CN(CC(O)c1ccccc1)C(=O)CC1(c2ccccc2)CC(=O)N(Cc2ccncc2)C1=O` (stereo unspecified), the “% Inhibition” value is listed as -7% and the Z score came to 1.29.
The matching figures for `C[C@@H](CN1CC(c2nc3ccccc3[nH]2)C1)C(F)(F)F`: -3% and 0.51.
In the case of `Cc1noc(CN[C@H](c2nc(C3CC3)no2)C(C)C)n1`, the “% Inhibition” value is -7% and the Z score is reported as 1.05.
For `CC(C(=O)N1CCCC1C1CCCN1C)n1cccn1` (stereo unspecified), the “% Inhibition” value was 10% and the Z score is -1.39.
Turning to `COc1ncccc1C(=O)N1CC[C@H]2[C@H](CCC(=O)N2CCc2c[nH]cn2)C1`, the “% Inhibition” value is given as -8% and the Z score was found to be 1.61.
For `CNC(=O)CN1c2ccccc2C(=O)N(C)[C@@H]1c1cccc(NC(=O)c2ccccc2Cl)c1`, in that order: -7% and 0.62.
For `COc1cccc(CN2CC[C@H](CO)[C@H](NC(=O)c3cccnc3)C2)n1`, in that order: -9% and 1.21.
For the compound `CN1CCNC(=O)C[C@@H]2CN(C(=O)Cc3ccc(Cl)c(Cl)c3)C[C@@H]2n2cc(nn2)Cn2cccc(c2=O)C1=O`, the “% Inhibition” value was found to be 0% and the Z score amounted to 0.05.
As to `CC(=O)Nc1ccc(S(=O)(=O)NCc2nccc(N(C)C)n2)cc1`, the “% Inhibition” value is reported as -2% and the Z score is recorded as 0.37.
The matching figures for `COc1ccc2c(c1)[C@@H](NC(=O)c1ccn(C(F)F)n1)CC(C)(C)O2`: 0% and -0.01.
For `Cc1cnc(C(=O)NC(c2ccc(F)cc2F)[C@H]2C[C@@H](O)C2)cn1` (stereo partly specified), in that order: 12% and -1.62.
For `Cc1ccn2c(NC(=O)c3cccc(S(=O)(=O)N4CCOCC4)c3)c(-c3ccccc3)nc2c1`, in that order: -29% and 3.4.
As for `CCN1C(=O)C(C)(C)N[C@@H]1c1conc1C`, the “% Inhibition” value is -1% and the Z score worked out at 0.16.
For `CCC(=O)N1CC[C@H](c2nc(-c3ccc(N4CCCCC4)nc3)no2)C1`, in that order: -8% and 0.88.
The matching figures for `Cc1ncc(CO)c(CN2CCc3[nH]cnc3[C@@H]2c2ccsc2)c1O`: -8% and 1.2.
For the compound `CC1=NO[C@](C)(C(=O)N2CCC(CNC(=O)CCc3cccnc3)CC2)C1`, the “% Inhibition” value was -2% and the Z score is reported as 0.25.
Turning to `COCCn1nc2n(c1=O)CCN(Cc1cccc(C#N)c1)CC2`, the “% Inhibition” value is given as -19% and the Z score turned out to be 2.43.
For `C1CCC(CCc2nc([C@H]3CCOC3)no2)CC1`, in that order: -6% and 1.09.
In the case of `CCCCN(CC)c1ccc(-c2nc(-c3ccc(F)cc3)no2)cn1`, the “% Inhibition” value was -11% and the Z score is 1.21.
The matching figures for `CC1CC(O)CN1C(=O)c1cc(C(N)=O)cs1` (stereo unspecified): -5% and 0.99.
As to `CCCCc1nc(CNCCn2cccn2)no1`, the “% Inhibition” value was -11% and the Z score worked out at 1.14.
As for `O=C1NC[C@@]2(CCCN(Cc3ccccc3OCCCn3ccnc3)C2)O1`, the “% Inhibition” value is -15% and the Z score was 3.
The matching figures for `Cc1cc(CN(CC(=O)O)Cc2ccc(Cl)s2)on1`: -2% and 0.29.
With `O=C(NCCC(=O)N1CCCCCC1)c1cc(Cl)c2c(c1)OCCCO2`, the “% Inhibition” value came to 30% and the Z score was -0.44.
For the compound `O=C(CN1C(=O)CNC1=O)NCc1ccc(Cl)s1`, the “% Inhibition” value turned out to be 6% and the Z score was -0.73.
For `O=C(CC1NC(=O)NC1=O)NC1CCCCC1Cc1ccccc1` (stereo unspecified), the “% Inhibition” value worked out at 7% and the Z score is given as -0.96.
For `CCCc1[nH]ncc1C(=O)OCc1cn2ccccc2c1C#N`, the “% Inhibition” value was 4% and the Z score is -0.53.
Regarding `Cn1c(=O)[nH]c(=O)c2nc(C[C@H](O)c3ccc(Cl)cc3)c(O)nc21`, the “% Inhibition” value is given as -4% and the Z score is given as 0.53.
As to `O=C(C[C@H]1CCCO1)NCC(F)(F)C(F)F`, the “% Inhibition” value is listed as 3% and the Z score is recorded as -0.45.
The matching figures for `N#Cc1cccc(OCCN2CCCC[C@H]2C(=O)N2CCOCC2)c1`: -1% and 0.12.
The matching figures for `C=CCCCC(C)NC(=O)N1CCC(S(C)(=O)=O)C1` (stereo unspecified): -7% and 1.04.
As for `CCCCn1c(N)c(N(Cc2nc3ccccc3o2)CC(C)C)c(=O)[nH]c1=O`, the “% Inhibition” value is recorded as -25% and the Z score was 3.95.
Regarding `CCOCC(=O)N1CCC2C(CCCN2C(=O)c2cc(OC)n(C)n2)C1` (stereo unspecified), the “% Inhibition” value is reported as 20% and the Z score is recorded as -2.54.
For `O=C(NCC(F)(F)F)c1cnc(OC2CCOCC2)c(Cl)c1`, in that order: -4% and 0.82.
The matching figures for `CN1C(=O)CCC(C(=O)Nc2ccnc3ccnn23)C1c1ccccc1` (stereo unspecified): -11% and 1.59.
As for `Cc1cccc([C@H](C)NS(=O)(=O)c2ccnn2C(C)C)n1`, the “% Inhibition” value is reported as -3% and the Z score was 0.56.
The matching figures for `Cc1cc(C)c(C)c(C(=O)NC[C@H](O)c2nccn2C)c1C`: 10% and -1.32.
On to `CN1CC(=O)N[C@@H]2CN(C(=O)CCCn3cncn3)CC[C@@H]2OCc2cccc(c2)Oc2cccc(c2)CCC1=O`, for which the “% Inhibition” value is recorded as -1% and the Z score is 0.15.
The matching figures for `Cc1cc(N(C)C)ccc1CNC(=O)C(=O)Nc1cccc(C(N)=O)n1`: -10% and 0.99.
As for `CCCCNC(=O)N1CC(C(=O)Nc2ccc(OC)cc2OC)CCC1c1ccc(F)c(C)c1` (stereo unspecified), the “% Inhibition” value is given as -3% and the Z score worked out at 0.35.
The matching figures for `COc1cc(OC)cc(C(C(=O)O)N2CC(C)C(F)(F)C(C)C2)c1` (stereo unspecified): -20% and 2.17.
In the case of `CCN1CC[C@H](CN(C)Cc2cccc3cc[nH]c23)C1`, the “% Inhibition” value is listed as -7% and the Z score is 1.12.

The record behind these values is ChEMBL document CHEMBL4888484, “Replenishing the malaria drug discovery pipeline: Screening and hit evaluation of the MMV Hit Generation Library 1 (HGL1) against asexual blood stage Plasmodium falciparum ,using a nano luciferase reporter read-out” (2022).
